From PubChem BioAssay AID1845203 (Molecular Pharmacology Branch, DTP, NCI, 2023)
Not every entry of the source has a single result; some have several. This list holds those alone. The source may hold further records. Results that share an entry repeat one measurement across runs, samples, wells, individuals or studies. Brackets with × say how often a value occurs here.

System: G-401 tumor spheroids, viability % test/control
Experiment: Anticancer human tumor G-401 cell line growth inhibition;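 further: spheroids exposed to compound for 7 days; 100% = DMSO vehicle-treated spheroids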
Conditions: compound 94.9 pM; stronger effect = lower value; spheroids with HUVEC and MSC
Excerpt: Multicellular complex tumor spheroid response to DNA repair inhibitors in combination with DNA-damaging drugs
This study explores the anticancer activities of DNA-damaging drugs and inhibitors of DNA damage repair, both as single agents and in combinations. Complex tumor spheroids comprised of malignant cells, endothelial cells and mesenchymal stem cells served as an in vitro model for human solid tumors. This model system incorporates physiologically relevant features and patient-derived or established malignant cell lines with clinically relevant genetic alterations from many tumor types. Twenty-six patient-derived or established malignant cell lines were evaluated representing sarcoma, melanoma, small cell lung cancer (SCLC), non-small cell lung cancer (NSCLC), as well as bladder, ovarian and pancreatic cancers. The concentration ranges selected for each drug and investigational agent were based upon clinically achievable concentrations if the clinical Cmax of the agent was known.
Compounds. […] If the clinical Cmax for an agent had not been determined, the highest concentration tested was 10 microM. […]

## COc1cc2c(cc1O)CCNC21CSC2c3c(OC(C)=O)c(C)c4c(c3C(COC1=O)N1C(O)C3Cc5cc(C)c(OC)c(O)c5C(C21)N3C)OCO4 (stereo unspecified)
  viability, T/C: 98.1, 95.7 (2×), 93, 94.8, 91.4, 80.8, 64.2, 88.6, 87.7%
